# Test results from PubChem BioAssay AID686978 (National Center for Advancing Translational Sciences (NCATS), 2013).
# Screen size: about 420,000 compounds; about 64,000 (15%) were called active. Inconclusive results, whose numbers are uncertain, are shown with a selection of clear calls. The call rests on the fitted dose curve; in most records, active means well fitted inhibition curve with a large enough effect; inconclusive means small, poorly fitted or top-dose-only effect; inactive means flat fitted curve, though single readings scatter. Potencies of inconclusive entries are left out as doubtful fits.
# Experiment: qHTS for Inhibitors of human tyrosyl-DNA phosphodiesterase 1 (TDP1): qHTS in cells in absence of CPT; further: nearly all actives have a fitted effect of over 55% in size
# Settings: DT40 Tdp1-/- hTDP1 cells, no CPT, ATP luminescence, 48 h; activity change, negative = growth inhibition: at 46.2 µM (top of the series) unless noted
# Procedure, shortened: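 No-CPT arm: Tdp1-/-;hTDP1 DT40 cells (400/well) plus compounds, incubated ≥48 hr at 37 °C. Readout CellTiter-Glo luminescence.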
# On the % scale 0 is the no-effect control and ±100 the full control effect; potency means the concentration at half of the fitted maximal effect; tags describe the fitted curve by direction and shape.
Structure (SMILES),Potency,"activity change, negative = growth inhibition"
O=C(CSc1ccccc1)Nc1ccc(-c2nc3ccccc3[nH]2)cc1,active: 10.3 µM,
COc1cc2[nH]c(=O)n(CCCC(=O)N3CCN(c4cccc(C(F)(F)F)c4)CC3)c(=O)c2cc1OC,active: 2.31 µM,
CCN1CCN(P2(=O)C=C(c3ccccc3)OC(c3ccccc3)=C2)CC1,inactive,
Nc1[nH]c(C(=O)c2ccccc2)c(-c2cccnc2)c1C(=O)NC1CCCCC1,"inconclusive [inhibitor, single point]",
COc1ccc(CCNC(=O)c2ccc(CNS(=O)(=O)c3cc(C)ccc3C)cc2)cc1OC,"inconclusive [inhibitor, single point]",
Cc1c(NC(=O)c2ccco2)cccc1-c1nc2cccnc2s1,"inconclusive [inhibitor, single point]",
O=C1CC(=C(c2ccccc2)c2ccccc2)C(=O)N1CCCN1CCN(c2cccc(Cl)c2)CC1,"inconclusive [inhibitor, single point]",
CC(NC(=O)c1sc2cc([N+](=O)[O-])ccc2c1Cl)C(C)(C)C (centres undefined),active: 4.11 µM,
O=C(NCC1CC1)Nc1ccc(Cl)cc1,"inconclusive [inhibitor, partial curve, poor fit]",
COc1ccccc1/C=C(\C#N)C(=O)c1cccn1C,inactive,
Cn1ncc2nc(SCC(=O)Nc3ccc(Br)cc3F)n(Cc3ccccc3)c(=O)c21,"inconclusive [inhibitor, single point]",
CN(C(=O)COC(=O)COc1ccc(Cl)cc1Cl)c1c(N)n(Cc2ccccc2)c(=O)[nH]c1=O,inactive,
COc1ccccc1N1CCN(C2CCCN(C(=O)CCC(=O)N(C)C)C2)CC1 (centres undefined),inactive,
O=C(NCCNc1ccc([N+](=O)[O-])cc1)c1cccc2c(Br)cccc12,"inconclusive [inhibitor, single point]",
CCc1ccc(-c2nc3c(=O)n(C)c(=O)nc-3n(CC)n2)cc1,active: 2.82 µM,
Cc1ccc(NC(=O)C2CCN(c3cc(C)nc4c(-c5ccc(Cl)cc5)c(C)nn34)CC2)c(C)c1,inactive,
Cc1ccc(NC(=O)c2cc(S(=O)(=O)N3CCCCC3)ccc2N2CCOCC2)cc1F,inactive,
C[C@@H]1CNC(=O)c2c(C(=O)N[C@@H](Cc3c[nH]c4ccccc34)C(=O)OC(C)(C)C)ncn21,"inconclusive [inhibitor, single point]",
COc1ccc(OCc2nnc(SCC(N)=O)n2-c2ccccc2OC)cc1,inactive,
CCCN(Cc1ccccc1)C(=S)Nc1cccc(C)c1C,"inconclusive [inhibitor, single point]",
Cc1ccc2nc(COC(=O)c3cnccn3)cc(=O)n2c1,inactive,
Cc1oc(-c2ccccc2F)nc1CS(=O)(=O)CC(=O)NCCc1ccc(Cl)cc1,inactive,

Structure (SMILES),Potency,"activity change, negative = growth inhibition"
COc1cc(-c2nc(Cn3nnc(C(=O)Nc4ccc(C)cc4C)c3C)c(C)o2)cc(OC)c1OC,active: 20.6 µM,
O=C(c1ccco1)n1nc(-c2ccccc2)nc1SCc1ccccc1,,inconclusive: -34.8% [inhibitor]
Cc1nc2ncnn2c(N2CCC(C(=O)NC3CCCC3)CC2)c1Cc1ccccc1,inactive,
CSc1ncc(C(=O)N2CCN(c3cc(Cl)ccc3C)CC2)c(C)n1,"inconclusive [inhibitor, partial curve]",
CCN1C(=O)N[C@@H](c2cccs2)C(C(C)=O)=C1C,inactive,
C#CCN(Cc1ccco1)C(=O)c1ccc(OC2CCN(Cc3ccccn3)CC2)cc1,"inconclusive [inhibitor, single point]",
CCn1c(SCC(=O)Nc2cccc(C)c2)nc2nc3c(cc2c1=O)COC(C)(C)C3,active: 18.4 µM,
CCCCCSc1nc2c(cnn2-c2ccccc2)c(=O)[nH]1,"inconclusive [inhibitor, single point]",
COc1ccc(CN2CCN(Cc3ccccc3F)CC2)cc1OC,"inconclusive [inhibitor, single point]",
Cc1ccc(NC(=O)CN(C)S(=O)(=O)c2ccc3[nH]c4c(c3c2)CCCC4)c(Cl)c1,active: 18.4 µM,
CC(C)CCNC(=O)CN1C(=O)NC(c2ccccc2)(c2ccccc2)C1=O,"inconclusive [inhibitor, partial curve]",
Cc1c(NS(=O)(=O)c2cc(C(=O)N(C)Cc3ccccc3)ccc2Cl)c(=O)n(-c2ccccc2)n1C,"inconclusive [inhibitor, single point]",
Cc1ccc(F)c(Oc2cc(NN3CCCCC3)c([N+](=O)[O-])cc2[N+](=O)[O-])c1,"inconclusive [inhibitor, single point]",
COc1ccc(N2CCN(c3oc(-c4ccc(COc5cccc(C)c5)o4)nc3C#N)CC2)cc1,"inconclusive [inhibitor, partial curve]",
CCC(C)NC(=O)C1(O)c2ccccc2NC(=O)N1c1ccc(C)c(C)c1 (centres undefined),,inconclusive: 1.4% [inhibitor]
NS(=O)(=O)c1ccc(N/N=C/c2ccc[nH]2)c([N+](=O)[O-])c1,"inconclusive [inhibitor, single point]",
CCN(CC)S(=O)(=O)c1cc(C)ccc1NC(=S)Nc1cccnc1,"inconclusive [inhibitor, single point]",
COc1ccc(N2CCN(CC(=O)Nc3c(C)cccc3C)CC2)cc1,"inconclusive [inhibitor, partial curve, poor fit]",
CCc1cccc(N(C(=O)c2csnn2)C(C(=O)NC2CCCCC2)c2cccnc2)c1 (centres undefined),"inconclusive [inhibitor, partial curve]",
Cc1cc2c(ncn2C)c(NS(=O)(=O)c2ccc(Cl)cc2)c1C,inactive,
O=C(c1cc2ncccn2n1)N1CCc2c([nH]c3ccccc23)C1c1ccccc1F (centres undefined),"inconclusive [inhibitor, single point]",
O=C(CSc1nc2c([nH]c3ccccc32)c(=O)n1-c1ccccc1)Nc1ccc2c(c1)OCCO2,"inconclusive [inhibitor, partial curve, poor fit]",
